From article PMC10726135 come the findings set out here.

This is one part of the list. At the low end of the ranking the order means little. Measured with an extract: partners may take part in the binding.

The assay addresses T1, HNF4alpha2 (COS-7 nuclear extract) (UniProt P41235).
T1 sequence: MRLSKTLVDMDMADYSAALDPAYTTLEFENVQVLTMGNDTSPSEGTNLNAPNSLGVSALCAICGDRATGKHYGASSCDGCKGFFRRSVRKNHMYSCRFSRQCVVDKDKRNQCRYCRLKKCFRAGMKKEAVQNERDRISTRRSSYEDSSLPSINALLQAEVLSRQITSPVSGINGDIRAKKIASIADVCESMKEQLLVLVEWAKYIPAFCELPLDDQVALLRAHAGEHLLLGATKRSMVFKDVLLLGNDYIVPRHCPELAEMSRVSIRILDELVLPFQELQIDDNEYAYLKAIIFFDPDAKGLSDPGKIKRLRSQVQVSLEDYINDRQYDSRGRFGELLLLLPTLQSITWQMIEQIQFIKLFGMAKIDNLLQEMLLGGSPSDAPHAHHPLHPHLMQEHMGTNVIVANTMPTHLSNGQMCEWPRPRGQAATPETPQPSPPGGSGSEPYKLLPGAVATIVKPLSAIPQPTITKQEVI
Briefly: protein-binding microarray. As to conditions: COS-7 nuclear extract on double-stranded Agilent 4x180k PBM; binding buffer, salt, pH and temperature not given; high values mean tight binding; double strand, one strand shown; sequences stand for … in …GCCTAGGGAGATTAGAGTATCGGTCGA
For GCAGTGAGGGTGGGTTCAAAGGTCAGAAAA, the binding signal (log2 normalized intensity) worked out at 7.95.

Take ATTGATGGTTTTATCAGCTGAGGCCATTGC: the binding signal (log2 normalized intensity) is 0.854.

In the case of GCCTTATTATCTGCTTTTATGACCTTTGAC, the binding signal (log2 normalized intensity) worked out at 7.34.

Take GACTCTTGGGCAGTCTAAAGTCTGATCCCA: the binding signal (log2 normalized intensity) was found to be 1.4.

As for GGATGGGGACAAAGGTCAAGAAAGCTTTTG, the binding signal (log2 normalized intensity) turned out to be 5.69.

For the sequence TCTAGGAACCTTTCTCCATACCTCTTGCGT, the binding signal (log2 normalized intensity) was -0.051.

Regarding TTAAAGAATTTTTCCCCTAGTTACAACTGT, the binding signal (log2 normalized intensity) came to 1.61.

Regarding GGATGAAGGCTGCTGCCTGAAAGGCCAAGC, the binding signal (log2 normalized intensity) was -1.2.

Regarding ATCAGCAAACACAGATAGCATAATCAAAGA, the binding signal (log2 normalized intensity) was -1.18.

On to TGTTGGGGAACTTTGCCCGGATTCCAGCAA, for which the binding signal (log2 normalized intensity) was 0.995.

As to TTCAAAGGTAGGGCCTACCTGCCTGAGCTA, the binding signal (log2 normalized intensity) was -1.24.

As for ATTCCACCCTCATTTGCTTGACCCGGGTAC, the binding signal (log2 normalized intensity) was 2.6.

In the case of GGGCATGAAGTCAAAGGAGGCATTCCTGCA, the binding signal (log2 normalized intensity) was -1.13.

Take AACTGTGTAATAAGGAGTTGTGTGATAAGG: the binding signal (log2 normalized intensity) turned out to be 1.26.

Turning to GGGCTGAGCCCACAGTCCAGTACCATTTCC, the binding signal (log2 normalized intensity) is -1.07.

Turning to GCCCCAGTGATGACAGCAAGATAATGTCAA, the binding signal (log2 normalized intensity) came to 1.18.

As to GTTTGCAAGCCCAAAGCCCCCAGAGGTTCT, the binding signal (log2 normalized intensity) is 2.89.

Regarding CTGCAGGTCTCTAAATGGTAGGATTGTTTG, the binding signal (log2 normalized intensity) is 1.52.

Take GACGACTTACTTTTATCAGGTAAAGATATG: the binding signal (log2 normalized intensity) was 1.32.

With AGGTAGAGGGACACTGATAACACTGATAAC, the binding signal (log2 normalized intensity) was -1.19.

Regarding GTTGCAACTTTGACTATAGCGTCTCCTGGC, the binding signal (log2 normalized intensity) was -0.321.

For CTAACGTATGGACTTTCTGATGTCAGAAAA, the binding signal (log2 normalized intensity) was found to be 1.53.

Take AGCTCTGAACTAACAATTCTTTCTGATAAG: the binding signal (log2 normalized intensity) was -1.14.

For ACAAGGAAAAATGACCATCTCGTCAAGGTG, the binding signal (log2 normalized intensity) is -1.2.

As for ATCCTCAAGAAACACAGAACTATCAAACAT, the binding signal (log2 normalized intensity) was -1.06.

Take ACATAAATGTGCCCAGATAAGAACTGCAAG: the binding signal (log2 normalized intensity) was -1.19.

On to GGAGTAGGCTTTAGATAAGGTATGTGGGAG, for which the binding signal (log2 normalized intensity) came out at 0.395.

Regarding GAAATGGATTTTTTGGGTAAAGTCCAGGCA, the binding signal (log2 normalized intensity) worked out at 2.36.

Take AGATAAGGAGGAGACAGACTTATCGGGTAG: the binding signal (log2 normalized intensity) was -1.08.

As to ACTTTCTTGTTTACTCACCTGATTCAATGT, the binding signal (log2 normalized intensity) is 1.48.

CGCGCCGGGCACTGATAACGCCCGCCTAAC: the binding signal (log2 normalized intensity) is -0.947.

GCCATTGTTCATACTGCAGCTCTGCGTCTT: the binding signal (log2 normalized intensity) was -0.62.

Take TTGGGCTAGCCGCTCCTCCCACGTCGCTGC: the binding signal (log2 normalized intensity) was -1.03.

For TGAAAATACAAACAAATTGTGTGCAACAGG, the binding signal (log2 normalized intensity) was -0.666.

TTAAAGGGCAGAAGAAGGGATTTAGATTAG: the binding signal (log2 normalized intensity) was -0.58.

Consider CCCAGCAGGCAGACTGGCTCCGCTGCTGCA, for which the binding signal (log2 normalized intensity) was -1.08.

Regarding AATCTTTCAGGAATCTCAGGAGTGATGCCA, the binding signal (log2 normalized intensity) was -1.05.

Consider AGAGGAAGATCTTTTTGATGACTTTGTAGG, for which the binding signal (log2 normalized intensity) amounted to 1.03.

With AATGTAGCCGGCTCAAAATAGGCAAGACTG, the binding signal (log2 normalized intensity) is -0.587.

On to ATTGCCATCTGCAAGAGAGAATAGATAGTG, for which the binding signal (log2 normalized intensity) is -0.971.

Consider TGCGGTAGGCATTGAGGCAGCCAGCGCAGG, for which the binding signal (log2 normalized intensity) was -1.06.

For TCAAAGACTCAGATGAGTTTCTTCACTGAC, the binding signal (log2 normalized intensity) was -1.13.

As for CAGTGAGGATGTGTGCTCGAGGTGGACTTT, the binding signal (log2 normalized intensity) is 6.58.

Take GGTAAGCCACTGAACTTTCACTGCCTATCT: the binding signal (log2 normalized intensity) is -1.06.

On to TGTTCCTCCAGACACGGGGATAACACCTGC, for which the binding signal (log2 normalized intensity) is -0.974.

For the sequence ACATTTATTGTGAGATTACGTAAGTGAAAG, the binding signal (log2 normalized intensity) came out at 1.96.

As for TCCAAAGTTCAAACTCTGAAAGCACTAAGT, the binding signal (log2 normalized intensity) is 1.04.

Turning to AGTGGCACTCTCTGGGTTAAACGTGCAGCA, the binding signal (log2 normalized intensity) was -0.85.

With GCACAATCAGCAAACACAGATAGCATAATC, the binding signal (log2 normalized intensity) is -1.02.

As to CCTAGCACTTCCCGAGTGAGGCAATGCCTC, the binding signal (log2 normalized intensity) was -1.04.

Take TTCCATGTTTGTCTTTGCATTGCTCAATTT: the binding signal (log2 normalized intensity) was found to be 1.98.

Regarding GCCATTGACGGTATGTGAATGCCTGGGCAT, the binding signal (log2 normalized intensity) is -0.879.

With GCTTTCTTCCAAGGCTGCAAGCAAACCTGC, the binding signal (log2 normalized intensity) is -1.16.

In the case of TCATGAGCATGCTTCCCAAATGGAGTGCCC, the binding signal (log2 normalized intensity) amounted to 0.48.

Turning to CAACTTCCCCAACCCTTGCACTGCTGGTTT, the binding signal (log2 normalized intensity) is 1.58.

For CACCAGCATGGTGATGCTAGCTACTACATG, the binding signal (log2 normalized intensity) was -1.3.

As for ATGACCTCTTTTAGTAACTGACTTTAACTT, the binding signal (log2 normalized intensity) stood at 1.5.

In the case of CTGAAGTCAATGTCAGCTAGAGGCCCTGCA, the binding signal (log2 normalized intensity) was -1.2.

Regarding GAGTTTCTGCAGTTCTGGGCCAAAGGTCAT, the binding signal (log2 normalized intensity) was 6.45.

On to ACAATAGGAATTCAACCAATGTGGAGCTGC, for which the binding signal (log2 normalized intensity) is -1.15.

On to GCTCCTTTGAGCACTGCTGACTGTTTGCTT, for which the binding signal (log2 normalized intensity) amounted to 1.53.

In the case of CTCCCTAGAGCAGCAGTAGGCTCTCGGGCC, the binding signal (log2 normalized intensity) was -1.02.

For the sequence CCAGGTGTGCAGAGAGCAAACGAACCGGCA, the binding signal (log2 normalized intensity) is -1.19.

Consider CCCCGGGAGCAGCATGGCCCTTTGCAGCCC, for which the binding signal (log2 normalized intensity) is -1.23.

On to GGGCAAGCCCACTCTCTGAGTCTGATAAGG, for which the binding signal (log2 normalized intensity) was -1.17.

As for TAAATATGTTCCAAAGTTCAACCAGATGAT, the binding signal (log2 normalized intensity) was 3.04.

On to TTTTTGAGATGGAATCTTGCCCTGTCGCCC, for which the binding signal (log2 normalized intensity) was determined as 2.19.

With CAAGGGTTCAGGGCTCAGTTGACATGATAC, the binding signal (log2 normalized intensity) came out at 1.58.

With GCAGGAGCCACCTGTCACTCAATGCAGCAG, the binding signal (log2 normalized intensity) is -1.22.

For CAATGCCCCAGAAAGCCAGCAGGGGCTGCT, the binding signal (log2 normalized intensity) is -0.844.

As to CTGGGACCCACCCACCTATGTCCTTATCCT, the binding signal (log2 normalized intensity) was found to be 1.88.

With AGGTAGAGAGCTGTCTGCTGAGGATGTGGC, the binding signal (log2 normalized intensity) was -0.345.
